These results are taken from patent US9803019B2, “Carrier immunoglobulins and uses thereof” (Amgen Inc., priority 2010, dated 2017).

For one data set, the system named is Colo205 cells. Description: Colo205 cell based caspase-3/7 apoptosis assay. The settings on record: Colo205, relative luminescence (FIG. 20C). Also on record: species or system human. As to the method:
Samples of antibodies 4241 and 4341 were compared with positive control IgG1 anti-TR2 mAb 16449. The prepared antibody samples were added to TRAIL-sensitive human ascites colorectal adenocarcinoma cell line Colo205. The detection of TRAIL-mediated caspase-3 activation by measuring an increase in relative luminescence was used as a positive marker for apoptosis.
Colo205 is a human colon carcinoma cell line that is sensitive to the presence of TRAIL. […] A Colo205 based cell assay was developed to verify the cell killing efficacy of antibodies. The in vitro biological activity of the Antibody 16449 (anti-TRAIL-R2 antibody) is analyzed by its ability to induce apoptosis in human ascites colorectal adenocarcinoma cell line Colo205. The detection of caspase-3 activation is used as a positive marker for apoptosis, using the Apo-One™ Homogeneous Caspase™-3/7 assay kit (PromegaCorporation, Madison, Wis.), according to the manufacturer's instruction. (see, Niles et al., The Apo-One™. Homogeneous Caspase™-3/7 assay: a simplified “solution” for apoptosis detection, Cell Notes 2:2-3 (2001)). […] Luminescence produced is proportional to the amount of caspase activity present. The luminescence of each sample is measured in a plate-reading luminometer. Biological activity of the test sample is determined by comparing test sample response to Reference Standard response. […]

Data set [1] is described as follows: Thermoresistance by DSC (MicroCal VP-DSC). The data set is classed as physicochemical. The conditions noted are these: 0.5 mg/ml in 10 mM sodium acetate, 9% sucrose, pH 5.0; 20° C. to 95° C. at 1° C. per minute. Here is the method:
The protein concentration was 0.5 mg/ml in 10 mM sodium acetate, 9% sucrose, pH 5.0.
Antibodies were also analyzed for thermoresistance by DSC using a MicroCal VP-DSC where the samples were heated from 20° C. to 95° C. at a rate of 1° C. per minute. DSC directly measures heat changes that occur in biomolecules during controlled increase or decrease in temperature, making it possible to study materials in their native state.
DSC measures the enthalpy (ΔH) of unfolding due to heat denaturation. A biomolecule in solution is in equilibrium between the native (folded) conformation and its denatured (unfolded) state. […] DSC is also used to determine the change in heat capacity (ΔCp) of denaturation (see, FIG. 11). The proteins were incubated at 0.5 mg/ml in 10 mM sodium acetate, 9% sucrose, pH 5.0 (FIG. 11).
The antibodies were analyzed for thermoresistance by DSC using a MicroCal VP-DSC where the samples were heated from 20° C. to 95° C. at a rate of 1° C. per minute. The proteins were at 0.5 mg/ml in 10 mM sodium acetate, 9% sucrose, pH 5.0 (FIG. 28).
(DSC measures the heat that a sample takes up or gives off during a temperature scan.)

Data set [2] in a line: Light sensitivity: 3 days fluorescent light vs dark, SEC / HIC analysis. Format: physicochemical. The conditions noted are these: 3 days at room temperature, ambient fluorescent light vs aluminum foil. As to the method:
Samples were eluted at 0.8 ml/min with a 0-100% linear gradient over 50 minutes observing the absorbance at 220 nm.
To measure the light sensitivity of the antibodies, they were incubated in ambient lab fluorescent lighting or covered in aluminum foil for 3 days at room temperature. Light exposed and dark control antibodies were then analyzed using two size exclusion columns (TSK-GEL G3000SWXL, 5 mm particle size, 7.8×300 mm, TosohBioscience, 08541) in series with a 100 mM sodium phosphate, 250 mM NaCl, pH 6.8, mobile phase flowed at 0.5 mL/min. […] The antibodies were then analyzed by hydrophobic interaction chromatography (HIC) using two Dionex ProPac HIC-10 columns in series with mobile phase A being 1 M ammonium sulfate, 20 mM sodium acetate, pH 5.0 and mobile phase B being 20 mM sodium acetate, 5% acetonitrile, pH 5.0. Samples were eluted at 0.8 ml/min with a 0-100% linear gradient over 50 minutes observing the absorbance at 220 nm.
To measure the light sensitivity of the antibodies, they were incubated in ambient lab fluorescent lighting or covered in aluminum foil for 3 days at room temperature. The antibodies were then analyzed by hydrophobic interaction chromatography using two Dionex ProPac HIC-10 columns in series with mobile phase A being 1 M ammonium sulfate, 20 mM sodium acetate, pH 5.0 and mobile phase B being 20 mM sodium acetate, 5% acetonitrile, pH 5.0. […]

Data set [3] in a line: Rat PK, single SC dose (Example 4). The data set is classed as in vivo, Sprague-Dawley rats. The settings on record: 5 mg/kg subcutaneously. Here is the method: Serum concentrations were then determined using an anti-human Fc based ELISA.
The pharmacokinetic profile of the 16435, 16444, 4241, and 4341 carrier antibodies was determined in adult Sprague-Dawley rats (8-12 weeks old) by injecting 5 mg/kg subcutaneously and collecting approximately 250 μL of blood in Microtainer® serum separator tubes at 0, 0.25, 1, 4, 24, 48, 72, 96, 168, 336, 504, 672, 840 and 1008 hours post-dose from the lateral tail vein. Each sample was maintained at room temperature following collection, and following a 30-40 minute clotting period, samples were centrifuged at 2-8° C. at 11,500 rpm for about 10 minutes using a calibrated Eppendorf 5417R Centrifuge System (Brinkmann Instruments, Inc., Westbury, N.Y.). The collected serum was then transferred into a pre-labeled (for each rat), cryogenic storage tube and stored at −60° C. to −80° C. for future analysis. To measure the serum sample concentrations from the PK study samples, the following method was used: ½ area black plate (Corning 3694) was coated with 2 μg/ml of anti-hu Fc, antibody 1.35.1 in PBS and then incubated overnight at 4° C. The plate was then washed and blocked with I-Block™ (Applied Biosystems) overnight at 4° C. […] The plate was washed, then 50 μl of Pico substrate were added, after which the plate was immediately analyzed with a luminometer.

B1: 4241 (antibody)
heavy: QVQLQESGPGLVKPSQTLSLTCTVSGGSISSGDYFWSWIRQLPGKGLEWIGHIHNSGTTYYNPSLKSRVTISVDTSKKQFSLRLSSVTAADTAVYYCARDRGGDYEYGMDVWGQGTTVTVSSASTKGPSVFPLAPSSKSTSGGTAALGCLVKDYFPEPVTVSWNSGALTSGVHTFPAVLQSSGLYSLSSVVTVPSSSLGTQTYICNVNHKPSNTKVDKRV[here human IgG1 Fc without letters]
light: EIVLTQSPGTLSLSPGERATLSCRASQGISRSALAWYQQKPGQAPSLLIYGASSRATGIPDRFSGSGSGTDFTLTISRLEPEDFAVYYCQQFGSSPWTFGQGTKVEIKRTVAAPSVFIFPPSDEQLKSGTASVVCLLNNFYPREAKVQWKVDNALQSGNSQESVTEQDSKDSTYSLSSTLTLSKADYEKHKVYACEVTHQGLSSPVTKSFNRGEC
Turning to B1, in the data set with Colo205 cells, the caspase-3 activation result is “failed to activate caspase-3”. Further, the DSC melting profile entry in data set [1] is listed as “most desirable melting profile, with a higher temperature for the secondary transition”. Besides, the “light sensitivity (HIC chromatograms with and without light exposure)” value in data set [2] is recorded as “neither antibody displayed significant differences”. For the same molecule, in data set [3], the “AUC0-t±SD” value is 24,045±2,480 μg/h/mL.
